In paper PMC9911399, “Two distinct binding modes provide the RNA-binding protein RbFox with extraordinary sequence specificity”:
Substitutions are numbered along the chain they refer to; changes in the protein carry UniProt numbers. This is one part of the list.

T1: RBFOX1 RRM (Homo sapiens, UniProt Q9NWB1 109-208)
T1 sequence: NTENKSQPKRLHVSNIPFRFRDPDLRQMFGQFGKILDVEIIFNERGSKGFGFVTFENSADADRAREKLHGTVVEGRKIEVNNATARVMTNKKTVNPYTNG

B1: CCGGCUC (DNA:RNA)
RNA: GGGAGACCGGAAUUCAGAUUGUCCCCGGCUCUUAAAUCCCGUCGUAGCCACCA
DNA 1: CAATCTGAATTCCGGTCTCCC
DNA 2: TGGTGGCTACGACGGGATT
B2: GUUAAAU (DNA:RNA)
RNA: GGGAGACCGGAAUUCAGAUUGUCCGUUAAAUUUAAAUCCCGUCGUAGCCACCA
DNA 1: CAATCTGAATTCCGGTCTCCC
DNA 2: TGGTGGCTACGACGGGATT
B3: CCGCCCC (DNA:RNA)
RNA: B1 RNA with G28C, U30C
DNA 1: CAATCTGAATTCCGGTCTCCC
DNA 2: TGGTGGCTACGACGGGATT
B4: GAAAGCU (DNA:RNA)
RNA: B2 RNA with U26A, U27A, A29G, A30C
DNA 1: CAATCTGAATTCCGGTCTCCC
DNA 2: TGGTGGCTACGACGGGATT
B5: ACACGCU (DNA:RNA)
RNA: B1 RNA with C25A, G27A, G28C, C29G, U30C, C31U
DNA 1: CAATCTGAATTCCGGTCTCCC
DNA 2: TGGTGGCTACGACGGGATT
B6: CGACUGA (DNA:RNA)
RNA: B1 RNA with C26G, G27A, G28C, C29U, U30G, C31A
DNA 1: CAATCTGAATTCCGGTCTCCC
DNA 2: TGGTGGCTACGACGGGATT
B7: AUAACGU (DNA:RNA)
RNA: B2 RNA with G25A, U27A, A29C, A30G
DNA 1: CAATCTGAATTCCGGTCTCCC
DNA 2: TGGTGGCTACGACGGGATT
B8: GUACAAC (DNA:RNA)
RNA: B2 RNA with U27A, A28C, U31C
DNA 1: CAATCTGAATTCCGGTCTCCC
DNA 2: TGGTGGCTACGACGGGATT
B9: AUGCAUA (DNA:RNA)
RNA: B1 RNA with C25A, C26U, G28C, C29A, C31A
DNA 1: CAATCTGAATTCCGGTCTCCC
DNA 2: TGGTGGCTACGACGGGATT
B10: CUCCGGU (DNA:RNA)
RNA: B2 RNA with G25C, U27C, A28C, A29G, A30G
DNA 1: CAATCTGAATTCCGGTCTCCC
DNA 2: TGGTGGCTACGACGGGATT
B11: GACUGCA (DNA:RNA)
RNA: B2 RNA with U26A, U27C, A28U, A29G, A30C, U31A
DNA 1: CAATCTGAATTCCGGTCTCCC
DNA 2: TGGTGGCTACGACGGGATT
B12: GUAGAAU (DNA:RNA)
RNA: B2 RNA with U27A, A28G
DNA 1: CAATCTGAATTCCGGTCTCCC
DNA 2: TGGTGGCTACGACGGGATT
B13: GGCAUGA (DNA:RNA)
RNA: B2 RNA with U26G, U27C, A29U, A30G, U31A
DNA 1: CAATCTGAATTCCGGTCTCCC
DNA 2: TGGTGGCTACGACGGGATT
B14: CAAAUCA (DNA:RNA)
RNA: B1 RNA with C26A, G27A, G28A, C29U, U30C, C31A
DNA 1: CAATCTGAATTCCGGTCTCCC
DNA 2: TGGTGGCTACGACGGGATT
B15: UAUACCC (DNA:RNA)
RNA: B1 RNA with C25U, C26A, G27U, G28A, U30C
DNA 1: CAATCTGAATTCCGGTCTCCC
DNA 2: TGGTGGCTACGACGGGATT
B16: GAGCUGC (DNA:RNA)
RNA: B1 RNA with C25G, C26A, G28C, C29U, U30G
DNA 1: CAATCTGAATTCCGGTCTCCC
DNA 2: TGGTGGCTACGACGGGATT
B17: AAAAGGG (DNA:RNA)
RNA: B2 RNA with G25A, U26A, U27A, A29G, A30G, U31G
DNA 1: CAATCTGAATTCCGGTCTCCC
DNA 2: TGGTGGCTACGACGGGATT
B18: UUGUUCC (DNA:RNA)
RNA: B1 RNA with C25U, C26U, G28U, C29U, U30C
DNA 1: CAATCTGAATTCCGGTCTCCC
DNA 2: TGGTGGCTACGACGGGATT
B19: GAGGCUG (DNA:RNA)
RNA: B1 RNA with C25G, C26A, C31G
DNA 1: CAATCTGAATTCCGGTCTCCC
DNA 2: TGGTGGCTACGACGGGATT
B20: CCUGUGA (DNA:RNA)
RNA: B1 RNA with G27U, C29U, U30G, C31A
DNA 1: CAATCTGAATTCCGGTCTCCC
DNA 2: TGGTGGCTACGACGGGATT

Target: T1, RBFOX1 RRM
Assay: EMSA; HiTS-Eq, 1 nM pool, 10 min; buffer printed only for the single-RNA assays: 10 mM Tris pH 7.5, 150 mM NaCl, 3.4 mM EDTA, 0.001% NP-40, 30 C
Settings: tags: His6 N-terminal (pET28a); label: 5' 32P
In short: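 These values rest on relative association constants, computed from read-count changes of each RNA species versus the control reaction and normalised to the cognate motif. Reads came from free RNA recovered by 8% native PAGE after purified RbFox RRM (wild type or mutant) at increasing concentrations was equilibrated for 10 min in 50 µL with 1 nM of a 5′-radiolabelled pool with 7 randomized nucleotides and DNA-annealed flanks.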

Binder | binding signal
B1 | 0.0183 KA relative to UGCAUGU
B2 | 0.00766 KA relative to UGCAUGU
B3 | 0.0158 KA relative to UGCAUGU
B4 | 0.00823 KA relative to UGCAUGU
B5 | 0.0024 KA relative to UGCAUGU
B6 | 0.0185 KA relative to UGCAUGU
B7 | 0.00249 KA relative to UGCAUGU
B8 | 0.00266 KA relative to UGCAUGU
B9 | 0.00891 KA relative to UGCAUGU
B10 | 0.00418 KA relative to UGCAUGU
B11 | 0.0222 KA relative to UGCAUGU
B12 | 0.00717 KA relative to UGCAUGU
B13 | 0.156 KA relative to UGCAUGU
B14 | 0.00034 KA relative to UGCAUGU
B15 | 0.00151 KA relative to UGCAUGU
B16 | 0.0153 KA relative to UGCAUGU
B17 | 0.00432 KA relative to UGCAUGU
B18 | 0.0218 KA relative to UGCAUGU
B19 | 0.0185 KA relative to UGCAUGU
B20 | 0.014 KA relative to UGCAUGU
